Test results as given in the supplement of paper PMC11876631.
± gives the standard deviation of the averaged measurements. Laboratory Escherichia coli strains with one amino-acid change in an essential protein, pooled on minimal glucose agar with carbenicillin or gentamicin at twice the control MIC (plus kanamycin and chloramphenicol for the plasmids), 48 h. Fold change of barcode share against drug-free plates; higher = less susceptible. Active = above 20 in both replicates (the paper's putatively resistant). '<' = one read or none on drug, '>' = one read or none on a drug-free plate. Shares are relative, so most strains fall below 1 when a few take over. Listed are strains with at least 15 reads on both drug-free plates, and hits; most hits rest on fewer reference reads. Replicate rank correlation about 0.5. Edits are read from barcodes.

B1: ppc L178Q (protein)
chain: MNEQYSALRSNVSMLGKVLGETIKDALGEHILERVETIRKLSKSSRAGNDANRQELLTTLQNLSNDELLPVARAFSQFLNLANTAEQYHSISPKGEAASNPEVIARTLRKLKNQPELSEDTIKKAVESLSLELVLTAHPTEITRRTLIHKMVEVNACLKQLDNKDIADYEHNQLMRRQRQLIAQSWHTDEIRKLRPSPVDEAKWGFAVVENSLWQGVPNYLRELNEQLEENLGYKLPVEFVPVRFTSWMGGDRDGNPNVTADITRHVLLLSRWKATDLFLKDIQVLVSELSMVEATPELLALVGEEGAAEPYRYLMKNLRSRLMATQAWLEARLKGEELPKPEGLLTQNEELWEPLYACYQSLQACGMGIIANGDLLDTLRRVKCFGVPLVRIDIRQESTRHTEALGELTRYLGIGDYESWSEADKQAFLIRELNSKRPLLPRNWQPSAETREVLDTCQVIAEAPQGSIAAYVISMAKTPSDVLAVHLLLKEAGIGFAMPVAPLFETLDDLNNANDVMTQLLNIDWYRGLIQGKQMVMIGYSDSAKDAGVMAASWAQYQAQDALIKTCEKAGIELTLFHGRGGSIGRGGAPAHAALLSQPPGSLKGGLRVTEQGEMIRFKYGLPEITVSSLSLYTGAILEANLLPPPEPKESWRRIMDELSVISCDVYRGYVRENKDFVPYFRSATPEQELGKLPLGSRPAKRRPTGGVESLRAIPWIFAWTQNRLMLPAWLGAGTALQKVVEDGKQSELEAMCRDWPFFSTRLGMLEMVFAKADLWLAEYYDQRLVDKALWPLGKELRNLQEEDIKVVLAIANDSHLMADLPWIAESIQLRNIYTDPLNVLQAELLHRSRQAEKEGQEPDPRVEQALMVTIAGIAAGMRNTG
B2: ppc I461Q (protein)
chain: MNEQYSALRSNVSMLGKVLGETIKDALGEHILERVETIRKLSKSSRAGNDANRQELLTTLQNLSNDELLPVARAFSQFLNLANTAEQYHSISPKGEAASNPEVIARTLRKLKNQPELSEDTIKKAVESLSLELVLTAHPTEITRRTLIHKMVEVNACLKQLDNKDIADYEHNQLMRRLRQLIAQSWHTDEIRKLRPSPVDEAKWGFAVVENSLWQGVPNYLRELNEQLEENLGYKLPVEFVPVRFTSWMGGDRDGNPNVTADITRHVLLLSRWKATDLFLKDIQVLVSELSMVEATPELLALVGEEGAAEPYRYLMKNLRSRLMATQAWLEARLKGEELPKPEGLLTQNEELWEPLYACYQSLQACGMGIIANGDLLDTLRRVKCFGVPLVRIDIRQESTRHTEALGELTRYLGIGDYESWSEADKQAFLIRELNSKRPLLPRNWQPSAETREVLDTCQVQAEAPQGSIAAYVISMAKTPSDVLAVHLLLKEAGIGFAMPVAPLFETLDDLNNANDVMTQLLNIDWYRGLIQGKQMVMIGYSDSAKDAGVMAASWAQYQAQDALIKTCEKAGIELTLFHGRGGSIGRGGAPAHAALLSQPPGSLKGGLRVTEQGEMIRFKYGLPEITVSSLSLYTGAILEANLLPPPEPKESWRRIMDELSVISCDVYRGYVRENKDFVPYFRSATPEQELGKLPLGSRPAKRRPTGGVESLRAIPWIFAWTQNRLMLPAWLGAGTALQKVVEDGKQSELEAMCRDWPFFSTRLGMLEMVFAKADLWLAEYYDQRLVDKALWPLGKELRNLQEEDIKVVLAIANDSHLMADLPWIAESIQLRNIYTDPLNVLQAELLHRSRQAEKEGQEPDPRVEQALMVTIAGIAAGMRNTG
B3: ppc I461A (protein)
chain: MNEQYSALRSNVSMLGKVLGETIKDALGEHILERVETIRKLSKSSRAGNDANRQELLTTLQNLSNDELLPVARAFSQFLNLANTAEQYHSISPKGEAASNPEVIARTLRKLKNQPELSEDTIKKAVESLSLELVLTAHPTEITRRTLIHKMVEVNACLKQLDNKDIADYEHNQLMRRLRQLIAQSWHTDEIRKLRPSPVDEAKWGFAVVENSLWQGVPNYLRELNEQLEENLGYKLPVEFVPVRFTSWMGGDRDGNPNVTADITRHVLLLSRWKATDLFLKDIQVLVSELSMVEATPELLALVGEEGAAEPYRYLMKNLRSRLMATQAWLEARLKGEELPKPEGLLTQNEELWEPLYACYQSLQACGMGIIANGDLLDTLRRVKCFGVPLVRIDIRQESTRHTEALGELTRYLGIGDYESWSEADKQAFLIRELNSKRPLLPRNWQPSAETREVLDTCQVAAEAPQGSIAAYVISMAKTPSDVLAVHLLLKEAGIGFAMPVAPLFETLDDLNNANDVMTQLLNIDWYRGLIQGKQMVMIGYSDSAKDAGVMAASWAQYQAQDALIKTCEKAGIELTLFHGRGGSIGRGGAPAHAALLSQPPGSLKGGLRVTEQGEMIRFKYGLPEITVSSLSLYTGAILEANLLPPPEPKESWRRIMDELSVISCDVYRGYVRENKDFVPYFRSATPEQELGKLPLGSRPAKRRPTGGVESLRAIPWIFAWTQNRLMLPAWLGAGTALQKVVEDGKQSELEAMCRDWPFFSTRLGMLEMVFAKADLWLAEYYDQRLVDKALWPLGKELRNLQEEDIKVVLAIANDSHLMADLPWIAESIQLRNIYTDPLNVLQAELLHRSRQAEKEGQEPDPRVEQALMVTIAGIAAGMRNTG
B4: ppc I461W (protein)
chain: MNEQYSALRSNVSMLGKVLGETIKDALGEHILERVETIRKLSKSSRAGNDANRQELLTTLQNLSNDELLPVARAFSQFLNLANTAEQYHSISPKGEAASNPEVIARTLRKLKNQPELSEDTIKKAVESLSLELVLTAHPTEITRRTLIHKMVEVNACLKQLDNKDIADYEHNQLMRRLRQLIAQSWHTDEIRKLRPSPVDEAKWGFAVVENSLWQGVPNYLRELNEQLEENLGYKLPVEFVPVRFTSWMGGDRDGNPNVTADITRHVLLLSRWKATDLFLKDIQVLVSELSMVEATPELLALVGEEGAAEPYRYLMKNLRSRLMATQAWLEARLKGEELPKPEGLLTQNEELWEPLYACYQSLQACGMGIIANGDLLDTLRRVKCFGVPLVRIDIRQESTRHTEALGELTRYLGIGDYESWSEADKQAFLIRELNSKRPLLPRNWQPSAETREVLDTCQVWAEAPQGSIAAYVISMAKTPSDVLAVHLLLKEAGIGFAMPVAPLFETLDDLNNANDVMTQLLNIDWYRGLIQGKQMVMIGYSDSAKDAGVMAASWAQYQAQDALIKTCEKAGIELTLFHGRGGSIGRGGAPAHAALLSQPPGSLKGGLRVTEQGEMIRFKYGLPEITVSSLSLYTGAILEANLLPPPEPKESWRRIMDELSVISCDVYRGYVRENKDFVPYFRSATPEQELGKLPLGSRPAKRRPTGGVESLRAIPWIFAWTQNRLMLPAWLGAGTALQKVVEDGKQSELEAMCRDWPFFSTRLGMLEMVFAKADLWLAEYYDQRLVDKALWPLGKELRNLQEEDIKVVLAIANDSHLMADLPWIAESIQLRNIYTDPLNVLQAELLHRSRQAEKEGQEPDPRVEQALMVTIAGIAAGMRNTG
B5: ppc L778A (protein)
chain: MNEQYSALRSNVSMLGKVLGETIKDALGEHILERVETIRKLSKSSRAGNDANRQELLTTLQNLSNDELLPVARAFSQFLNLANTAEQYHSISPKGEAASNPEVIARTLRKLKNQPELSEDTIKKAVESLSLELVLTAHPTEITRRTLIHKMVEVNACLKQLDNKDIADYEHNQLMRRLRQLIAQSWHTDEIRKLRPSPVDEAKWGFAVVENSLWQGVPNYLRELNEQLEENLGYKLPVEFVPVRFTSWMGGDRDGNPNVTADITRHVLLLSRWKATDLFLKDIQVLVSELSMVEATPELLALVGEEGAAEPYRYLMKNLRSRLMATQAWLEARLKGEELPKPEGLLTQNEELWEPLYACYQSLQACGMGIIANGDLLDTLRRVKCFGVPLVRIDIRQESTRHTEALGELTRYLGIGDYESWSEADKQAFLIRELNSKRPLLPRNWQPSAETREVLDTCQVIAEAPQGSIAAYVISMAKTPSDVLAVHLLLKEAGIGFAMPVAPLFETLDDLNNANDVMTQLLNIDWYRGLIQGKQMVMIGYSDSAKDAGVMAASWAQYQAQDALIKTCEKAGIELTLFHGRGGSIGRGGAPAHAALLSQPPGSLKGGLRVTEQGEMIRFKYGLPEITVSSLSLYTGAILEANLLPPPEPKESWRRIMDELSVISCDVYRGYVRENKDFVPYFRSATPEQELGKLPLGSRPAKRRPTGGVESLRAIPWIFAWTQNRLMLPAWLGAGTALQKVVEDGKQSELEAMCRDWPFFSTRLGMLEMVFAKADLWAAEYYDQRLVDKALWPLGKELRNLQEEDIKVVLAIANDSHLMADLPWIAESIQLRNIYTDPLNVLQAELLHRSRQAEKEGQEPDPRVEQALMVTIAGIAAGMRNTG
B6: ppc I461P (protein)
chain: MNEQYSALRSNVSMLGKVLGETIKDALGEHILERVETIRKLSKSSRAGNDANRQELLTTLQNLSNDELLPVARAFSQFLNLANTAEQYHSISPKGEAASNPEVIARTLRKLKNQPELSEDTIKKAVESLSLELVLTAHPTEITRRTLIHKMVEVNACLKQLDNKDIADYEHNQLMRRLRQLIAQSWHTDEIRKLRPSPVDEAKWGFAVVENSLWQGVPNYLRELNEQLEENLGYKLPVEFVPVRFTSWMGGDRDGNPNVTADITRHVLLLSRWKATDLFLKDIQVLVSELSMVEATPELLALVGEEGAAEPYRYLMKNLRSRLMATQAWLEARLKGEELPKPEGLLTQNEELWEPLYACYQSLQACGMGIIANGDLLDTLRRVKCFGVPLVRIDIRQESTRHTEALGELTRYLGIGDYESWSEADKQAFLIRELNSKRPLLPRNWQPSAETREVLDTCQVPAEAPQGSIAAYVISMAKTPSDVLAVHLLLKEAGIGFAMPVAPLFETLDDLNNANDVMTQLLNIDWYRGLIQGKQMVMIGYSDSAKDAGVMAASWAQYQAQDALIKTCEKAGIELTLFHGRGGSIGRGGAPAHAALLSQPPGSLKGGLRVTEQGEMIRFKYGLPEITVSSLSLYTGAILEANLLPPPEPKESWRRIMDELSVISCDVYRGYVRENKDFVPYFRSATPEQELGKLPLGSRPAKRRPTGGVESLRAIPWIFAWTQNRLMLPAWLGAGTALQKVVEDGKQSELEAMCRDWPFFSTRLGMLEMVFAKADLWLAEYYDQRLVDKALWPLGKELRNLQEEDIKVVLAIANDSHLMADLPWIAESIQLRNIYTDPLNVLQAELLHRSRQAEKEGQEPDPRVEQALMVTIAGIAAGMRNTG

What follows are proteins tested against Escherichia coli (laboratory strain) (assay: barcode share on antibiotic plates over drug-free plates; higher = less susceptible). Conditions: antibiotic: carbenicillin; 2× MIC (3.1 µg/mL).
Protocol: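 A pool of E. coli strains, each edited to carry one amino-acid change in an essential protein, was grown for 48 h on minimal glucose agar with or without antibiotic; strain barcodes were sequenced; mean of two replicates.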

Row | Protein | fold change of barcode share
1 | B1 | 0.423 ± 0.12
2 | B2 | 0.586 ± 0.025
3 | B3 | 0.301 ± 0.071
4 | B4 | 0.473 ± 0.08
5 | B5 | 0.776 ± 0.17
6 | B6 | 0.417 ± 0.15

Same assay, conditions: antibiotic: gentamicin; 2× MIC (MIC 0.45 µg/mL)

Row | Protein | fold change of barcode share
7 | B1 | < 0.00797
8 | B2 | 0.00895 ± 0.0064
9 | B3 | 0.00806 ± 0.0011
10 | B4 | 0.00831 ± 0.0058
11 | B5 | 0.0115 ± 0.0065
12 | B6 | < 0.006
